# Reference: the supplement of paper PMC11417369
# This is one part of the list.
# Tested on: PF3D7_0420300 AP2 domain 1 (GST-tagged)
# Test: gcPBM binding intensity (ln(normalized median fluorescence intensity)); higher = stronger DNA binding
# Outline: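 After 1 h on an Agilent 4 × 180k array of primer-extended double-stranded 36-bp intergenic genomic probes and negative controls, bound GST-tagged P. falciparum DNA-binding domains were detected with Alexa488 anti-GST antibody and scanned at 488 nm. The domains had been expressed in E. coli, and binding took place in 1× PBS with 1% milk, 0.2 mg/ml BSA, 0.5% salmon testes DNA and 0.03% Triton X-100. Binding intensity is the highest Masliner-normalised natural-log median intensity across replicate spots of either probe orientation.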
row,Sequence,gcPBM binding intensity (ln)
1,TATAAACATAAATATACACACAAACATCTATGTATT [CACACA_site4804],9.74
2,AAAAAAAAATATCACACACACATAAATATAAACCAA [CACACA_site2279],10.1
3,ATTGGGTTCATCAGCACACACAACATCATGTAATAA [CACACA_site5093],9.5
4,AGAGCATAATAAAACACACACATACATACATATATA [CACACA_site935],9.82
5,TAAAACATCAAGGGGTGTACAAAAAAGATGAACAGG [XGTACX_site6929],9.5
6,AAAAAAAAAAAAACTACACACATAAAATATATTGTG [CACACA_site805],9.44
7,AGGCACTTATAATAATGTACATAAATAAAAAGAAAA [XGTACX_site6037],9.2
8,TATGTAAAAACAGGCACACATATATCATATATATAT [CACACA_site619],9.56
9,TATGTATGCCTGTTTTGTACTTAAGAAAATGTTGCT [XGTACX_site8443],9.28
10,AAAAAAAAAAAAAAAAGTACATAATATAAAATCTAA [XGTACX_site6019],9.13
11,AAAAAAAAAAAAAAATGTACATATTAAGTATAATTA [XGTACX_site4616],9.07
12,CAATTTGGTGTACAGGTGCACATGCCTCACGATAAA [GTGCAC_site9650],9.19
13,TTAGCTCAATTTTTGGGTACACACAAATGTATAATA [XGTACX_site5003],9.33
14,GAAAAATGTAAATACATATATGTACACAAATATATA [GTGCAC_negctrl_site557],9.24
15,TTTAATTCCATAAGTAAACACACAAATGCCAAAATT [CACACA_site9049],9.58
16,AATATTTATAAATTTACACACACACGGGTGAACATA [CACACA_site6979],9.89
17,ATTCTAAATTAAAATACACACATATATACATAATAT [CACACA_site2792],9.49
18,ACCCATTTTAATTTAGTGCACATTTTACCTTTATAC,9.69
19,AAAAAAATAACAAAGTGTACTTTTATATTTTACATA [XGTACX_site8954],8.93
20,TTCTGCAGCAATGTTTTTTTTAAATATTTATATGGT [CACACA_negctrl_site1815],9.26
21,TTTTTTTCTTTTTCAAAAAAAAAAAAAAAAAAAATA [GTGCAC_negctrl_site329],8.43
22,GCTAGTTTTTTTTGGCGTACAGTACCGGTTTACTTT [XGTACX_site2606],9.42

row,Sequence,gcPBM binding intensity (ln)
1,TTCCTCTTAATATGTGCACACTAAATTATAACATAA [CACACA_site3260],9.19
2,CATACCATACATAAAACACACAAAATTTACATAATA [CACACA_site3100],9.7
3,TATAGTTTTATTATTTATGTGTTAAAATTATACAAG [TGCATGCA_negctrl_site246],9.11
4,TGTATTATAATATTATGTACTTATAAATTTTATATT [XGTACX_site6432],9.2
5,AATTTAAAGTTTTTTTTTTTTTTTTTTTTTTTTTTG [CACACA_negctrl_site1082],8.81
6,TCTCACATTCTTATGGGTACACATGAGAAATTATAA [XGTACX_site6799],8.89
7,TGGGTGGTAAAAATGTGTACATAAAAAAATAATGTT [XGTACX_site2235],9.39
8,ATATTATTATAAAGTGGTACAATAAATGGTATTATA [XGTACX_site391],9.26
9,AAAAGGAATGAAAATTCACACAACTATAAATACATA [CACACA_site5337],9.37
10,GTTACACCAACAAACACACACACACCCACCCACAAA [CACACA_site2427],10.2
11,AAAAAAAATATATATATTAAAGTTTTAATTTTTATA [CACACA_negctrl_site497],9.03
12,TTAGAATTTAGAGAAGTGCATATTAAGTTACGAATT [GTGCAC_site9861],9.22
13,ATTATATATATATATAGTACTTTTTTTTTTTTTTTT [XGTACX_site8801],9.08
14,TTATTGGTTATATAAAGTACATTTGAAATATAATTG [XGTACX_site6553],8.99
15,ATAATAATTTTATGCACACAGAAAAATACAAGGTTA [CACACA_site3510],9.44
16,TTGCCTGACTTGTTCACACATATTTATGATATACAT [CACACA_site5783],9.57
17,TTTTCTTGGTATATGATTTATCCTAAATAAGTAAAT [CACACA_negctrl_site294],9.13
18,TATATCAAATTCTAAACATGCACAAAAAACTTATAA [TGCATGCA_site510],9.23
19,AAGGAAAAACCATTCGCACACACACCGAATATATAA [CACACA_site8403],9.88
20,ACTTAAATAATACATACACACATGTACATACAGAAA [CACACA_site1595],9.66
21,TATTTATATAGACACACACACATATATTTATATTTT [CACACA_site7240],10
22,TTTACATTTAATAAAAGTACTTATTTCATATACATA [XGTACX_site659],9

row,Sequence,gcPBM binding intensity (ln)
1,TAATTCTTTATAATAACACACATTCATATACAATAA [CACACA_site2499],9.34
2,GGTATTACCTGTTTGTTATGTAGATGTTGCTAGGAT [GTGCAC_negctrl_site736],9.4
3,ATACCAATAATATACATACACACATAAAGGTTTATA [CACACA_site314],9.75
4,AAGAAAAACTAAAGAGTTCTGTTCATATCTCTTTGG [TGCATGCA_negctrl_site549],8.99
5,TTTTACAATAACAATACACACTATAATATATATATA [CACACA_site4893],9.28
6,TAGGAGCCGAAACACACACACAAAAAAAAAAAAAAA [CACACA_site1731],9.55
7,CATATATATAAATACACACACACACCCCTTATAATT [CACACA_site4064],10.2
8,AAAAGAATTTGAAGTCGTACAATATCTATTATATGA [XGTACX_site8275],9.03
9,AAAAAATGGCTAGTTTGTACACAAAAGTTATTGCAT [XGTACX_site5381],9.25
10,ATATAATATACTTATTGTACTTATTTAAAATACTAA [XGTACX_site4266],9.01
11,AAAAAAAAATAAAAATGTACATATATAATATTATAT [XGTACX_site71],9.34
12,AAGATAAAATTATGCACACATACGAATAATTTTAAA [CACACA_site1705],9.38
13,TTTCTCAATTCTTAGAGTACATAAATAAAAAAAAAA [XGTACX_site7639],8.74
14,ATCACTAACATGTGTTGTACATAAAATTTGTTTGTT [XGTACX_site2207],9.33
15,AAAAAACAAAAACACACACACACATATATATATATA [CACACA_site3654],10.2
16,TTATTATTTAACATGTGGACACAAAAATTTAAGGGT [XGTACX_site4638],9.29
17,TTAACTTTTATATAGTGTACAAATAAATGCATACAG [XGTACX_site5958],9.12
18,TCTACTACTTAATGGAGTACTAGCTTCATAATATTA [XGTACX_site7030],8.97
19,TGCAAATTTAACAAAAAAAAAAAAAAAAAAAAAAAA [GTGCAC_negctrl_site64],8.4
20,TATTATGTATAAAGAAGTACTTTTTTTTTTTTTTTC [XGTACX_site201],8.8
21,TGAACACAGACAAATACACACAAAAAAAATAAATAA [CACACA_site4298],9.79
22,GATTATTTAAAATATACATGCGCGCACATATGCATA [TGCATGCA_site630],9.23

row,Sequence,gcPBM binding intensity (ln)
1,TGCATTTTCCTATTTGCATGCAATTAAAATATAGAA [TGCATGCA_site862],8.96
2,ATGTTTTAATGAGGTTTGCACTATATTTTAATGAAC,9.33
3,AACATATATACAGTAACACACACAAAAAAATATGAA [CACACA_site9323],10.1
4,TCAAGTTTATATTAACTATTTATGAAAAAAAAAAGA [CACACA_negctrl_site902],8.82
5,CTAAAAATTTTAATTGCACACCACGTTGGACTATTT [CACACA_site1489],9.24
6,TTACACTAAATATGTTCACACATTTTTTCCATCATA [CACACA_site4647],9.31
7,ATATATTACAAATGGAGTACTAAAAATATTCTATAT [XGTACX_site6669],9.35
8,TATAAGGCAATAATAGTGCACTAAGATATATAATGA,9.28
9,CCCATGCATTTTTGCACACACATATATTTATAAATA [CACACA_site6785],9.58
10,TATATATATGGGTTTACACACAATAATGAATTAAAA [CACACA_site915],9.56
11,CCCACAGACGGACACACACACACATATATATATATA [CACACA_site4352],10.1
12,ATAAAAATGGATGAATATAAAAAAAAAAAAATATAT [CACACA_negctrl_site182],9.3
13,GAATATATAAGAACAAATATGGCTTAGAAAAAAAAA [TGCATGCA_negctrl_site451],9.16
14,TACAAAAGTTAAACATGTACTTAATTATATGTTTTT [XGTACX_site2852],9.07
15,CTATTAAAAAAATTATGTACACAACGTCTCTATATA [XGTACX_site4813],9.17
16,TACATTTTTATTTTTACACACATATATATATATATA [CACACA_site1021],9.66
17,TATTATTTTATGAGACATAAAAAAAAAAAAAAAAAA [CACACA_negctrl_site1534],8.36
18,TATAATATATTTATATGTACTTATTTATTTATATAT [XGTACX_site6519],9.27
19,GAGTTTATTCTTTTTATACACACCTTATTTGATTAA [CACACA_site735],9.57
20,TTAAGTATTTTACGTACACACTTATAAATGTACAGG [CACACA_site6012],9.26
21,AAGTATTATTATAAGACACACATGTATATAAGTATA [CACACA_site1479],9.45
22,TCTTTATATATATATATATGTGTGAATGTTAAGTAT [XGTACX_negctrl_site135],9.24
